Experimental data as given in article PMC4336329 (PLoS ONE, 2015).
About 14,000 (4.5%) of roughly 310,000 compounds showed an effect of 50% or more. The effect is printed as a negative number. The list shows a part of the results.

target: human ether-à-go-go-related gene (hERG) potassium channel (human, UniProt Q12809); assay: primary screen, population patch clamp on CHO cells stably expressing hERG
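Further: peak tail current of the secondary pulse compared with the same well before compound.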

human ether-à-go-go-related gene (hERG) potassium channel, sequence (Q12809 whole entry, looked up): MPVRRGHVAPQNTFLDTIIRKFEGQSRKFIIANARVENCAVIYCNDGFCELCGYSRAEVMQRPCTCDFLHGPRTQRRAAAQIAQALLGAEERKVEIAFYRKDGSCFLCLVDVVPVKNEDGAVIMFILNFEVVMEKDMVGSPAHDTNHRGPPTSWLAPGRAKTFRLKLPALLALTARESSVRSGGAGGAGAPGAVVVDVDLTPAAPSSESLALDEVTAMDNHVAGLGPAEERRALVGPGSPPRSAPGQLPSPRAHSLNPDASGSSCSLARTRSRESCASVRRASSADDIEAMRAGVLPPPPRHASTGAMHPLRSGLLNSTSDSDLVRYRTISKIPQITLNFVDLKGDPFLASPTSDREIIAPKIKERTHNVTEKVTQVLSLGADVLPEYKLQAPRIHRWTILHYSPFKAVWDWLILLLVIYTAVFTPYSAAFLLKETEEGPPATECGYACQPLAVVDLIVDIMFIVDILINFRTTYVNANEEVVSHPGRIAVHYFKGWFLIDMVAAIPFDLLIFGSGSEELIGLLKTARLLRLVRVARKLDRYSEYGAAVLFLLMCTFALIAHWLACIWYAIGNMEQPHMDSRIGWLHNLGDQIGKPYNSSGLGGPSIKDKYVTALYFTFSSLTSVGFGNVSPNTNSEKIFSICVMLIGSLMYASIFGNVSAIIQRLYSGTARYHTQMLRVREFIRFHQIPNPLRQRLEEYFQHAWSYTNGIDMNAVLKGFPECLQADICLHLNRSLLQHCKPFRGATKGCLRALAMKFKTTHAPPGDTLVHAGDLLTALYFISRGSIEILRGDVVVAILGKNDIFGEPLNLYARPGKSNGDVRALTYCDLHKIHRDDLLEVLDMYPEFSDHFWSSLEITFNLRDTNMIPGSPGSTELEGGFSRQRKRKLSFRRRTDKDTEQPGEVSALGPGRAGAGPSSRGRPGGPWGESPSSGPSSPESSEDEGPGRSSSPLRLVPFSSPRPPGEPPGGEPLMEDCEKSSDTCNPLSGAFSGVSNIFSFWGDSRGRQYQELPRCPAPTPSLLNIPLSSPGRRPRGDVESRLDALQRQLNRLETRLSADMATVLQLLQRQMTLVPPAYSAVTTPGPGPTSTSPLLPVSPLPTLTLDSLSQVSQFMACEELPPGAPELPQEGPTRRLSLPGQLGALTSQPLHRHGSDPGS

| SMILES | hERG current change (%, negative = inhibition) at 10uM [%] |
| --- | --- |
| Cc1onc(-c2c(F)cccc2Cl)c1C(=O)N1CCCCC1 | 3.59 |
| O=C(Nc1ccccc1)N1CCCN(Cc2c(F)cccc2Cl)CC1 | -13.3 |
| CCCCn1c(N)c(N(CC)C(=O)c2cc(Br)ccc2Cl)c(=O)[nH]c1=O | 5.91 |
| O=C(Nc1ccnn1C1CCN(CCCc2ccccc2)CC1)c1ccccc1Cl | -82.2 |
| COc1ccc(-c2csc(NS(=O)(=O)c3ccc([N+](=O)[O-])cc3)n2)cc1 | 8.51 |
| O=[N+]([O-])/C(C(Cl)=C(Cl)Cl)=C(\Nc1ccc(F)cc1)n1cncn1 | 17.1 |
| COCCNC(=S)N(Cc1cccs1)Cc1cc2cccc(C)c2[nH]c1=O | 11.6 |
| C[N+]1(CCOS(=O)C23CC4CC(CC(C4)C2)C3)CCOCC1.[Cl-] (centres unmarked) | 19.3 |
| CC(=O)Nc1ccc(S(=O)(=O)N(C)CC(=O)Nc2ccccc2N2CCOCC2)cc1 | 6.08 |
| O=C1/C(=C/c2ccc(F)cc2)Oc2cc(OC(=O)N3CCOCC3)ccc21 | 20.5 |
| Cc1nn(C)c(C)c1S(=O)(=O)N1CCC(C(=O)NCC2COc3ccccc3O2)CC1 (centres unmarked) | -5.22 |
| c1ccc2cc(C3N4CCCN34)ccc2c1 (centres unmarked) | 22.1 |
| S=C1CN=C(c2ccccc2Cl)c2cc(Cl)ccc2N1 | 8.76 |
| CCc1ccc(-c2cc(C(F)(F)F)n3nc(C(=O)Nc4cnn(Cc5ccccc5C)c4)cc3n2)s1 | 5.41 |
| CC(C)[C@H](NC(=O)N1c2ccccc2NC(=O)[C@@H]1C(C)C)C(=O)N[C@@H](C(=O)O)c1ccccc1 | 13 |
| C=CCn1c(=O)n(CCOC)c(=O)c2sc3ccccc3c21 | -12.2 |
| O=C(CCCn1c(=S)[nH]c2cc3c(cc2c1=O)OCO3)NCc1ccccc1Cl | 23.7 |
| CCCn1nnnc1SCC(=O)Nc1sc(C)c(C)c1C#N | 0.801 |
| Cc1ccccc1-c1ncc(CN2CCN(C3CCCCC3)C(CCO)C2)cn1 (centres unmarked) | -17.4 |
| CCN(CC)CCNC(=O)CS(=O)Cc1nc(-c2ccc(Cl)cc2)oc1C (centres unmarked) | -29.2 |
| CN(C)Cc1c(C(=O)N/N=C/c2ccccc2OCc2c(F)cccc2Cl)nnn1-c1nonc1N | 21.9 |
| CCc1nnnn1-c1ccc([N+](=O)[O-])cc1C | 10.4 |
| O=C(O)[C@H]1CCCN1C(=O)c1ccccc1N1C(=O)[C@@H]2Cc3c([nH]c4ccccc34)C(c3cccc(Cl)c3)N2C1=O (some centres unmarked) | 12.8 |
